Source: ChEMBL document CHEMBL4888484, “Replenishing the malaria drug discovery pipeline: Screening and hit evaluation of the MMV Hit Generation Library 1 (HGL1) against asexual blood stage Plasmodium falciparum ,using a nano luciferase reporter read-out” (2022)
Hit rate of the full screen: of about 150,000 compounds, about 540 (0.36%) showed an effect of 50% or more. The list shows a part of the results.

System: Plasmodium falciparum
Assay: Primary screen in NF54 nanoGlo assay, in single point, at 2uM, 72h; a lower Z score goes with more inhibition
Assay type: functional, Erythrocyte
Settings: timepoint 72 hour

In the case of CC(C)N(CCc1nccs1)C(=O)c1ccncc1F, the “% Inhibition” value is reported as 5% and the Z score is reported as -0.48.
CS(=O)(=O)NC[C@@H](c1ccsc1)n1cccn1 was tested, and the “% Inhibition” value was -7% and the Z score was 1.35.
O=C(c1cscn1)N1CC[C@@]2(CCCN(Cc3ccc(F)c(F)c3)C2=O)C1 was tested, and the “% Inhibition” value was -7% and the Z score was 0.99.
In the case of O=C(C[C@@H]1C=CCC1)NCCN1CCCCC1=O, the “% Inhibition” value is reported as -8% and the Z score is reported as 1.08.
With CC(C)S(=O)(=O)N1CCC[C@H](CCc2noc(-c3ccccn3)n2)C1 the “% Inhibition” value was -5% and the Z score was 0.83.
In the case of Cc1ccncc1C(=O)NCC(=O)N1CCCCCNC(=O)C[C@H]1c1ccccc1, the “% Inhibition” value is reported as -9% and the Z score is reported as 1.23.
O=S(=O)([C@H]1CCCN(c2ccc3nccnc3n2)C1)N1CCOCC1 was tested, and the “% Inhibition” value was -21% and the Z score was 2.64.
With O=C(NCc1ccc(-c2ccoc2)cc1)c1cncc(Br)c1 the “% Inhibition” value was -7% and the Z score was 0.77.
N[C@@H](CCCCc1ccccc1)c1ccccc1 was tested, and the “% Inhibition” value was -9% and the Z score was 1.27.
In the case of CC(C)[C@H](NC(=O)Cc1cccc(F)c1F)c1ncnn1C, the “% Inhibition” value is reported as -9% and the Z score is reported as 0.85.
In the case of O=C(Cn1nc2c(N3CCCCCC3)nccn2c1=O)NCc1ccc2c(c1)OCO2, the “% Inhibition” value is reported as -5% and the Z score is reported as 0.95.
With CC(CC(=O)N1CCC(OCc2ccccn2)C1)c1ccccc1C(F)(F)F (centres undefined) the “% Inhibition” value was 4% and the Z score was -0.69.
O=S(=O)(c1cc(-c2nnc(C3CCCC3)o2)co1)N1CCN(c2ccccc2)CC1 was tested, and the “% Inhibition” value was -8% and the Z score was 1.05.
For Cc1noc(C)c1C(=O)NC[C@H]1Cc2ccccc2CO1, the “% Inhibition” value was -6% and the Z score was 0.74.
In the case of C[C@H](NCc1ccon1)c1ccccc1N(C)C, the “% Inhibition” value is reported as 0% and the Z score is reported as 0.
In the case of Cc1nc2cc(C(=O)N3CCOC[C@@H]3CC3CCC3)ccc2o1, the “% Inhibition” value is reported as -1% and the Z score is reported as 0.07.
With Cc1c(Cl)c(CN2Cc3ccccc3C[C@@H]2C(=O)NC2CC2)nn1C the “% Inhibition” value was 0% and the Z score was 0.05.
For O=C(C[C@H]1CCCC1(F)F)Nc1ccc2cnccc2c1, the “% Inhibition” value was -1% and the Z score was 0.23.
For Cc1cc(NC(=O)NC23CC2COC3(C)C)nn1C(C)C1CC1 (centres undefined), the “% Inhibition” value was -12% and the Z score was 2.2.
O=C(Cc1cccnc1)N1CCC(N2C[C@H](OCC3CC3)C23CCOCC3)CC1 was tested, and the “% Inhibition” value was -1% and the Z score was 0.15.
COC(=O)c1ccc(-c2noc(CN3CCC(C(=O)N4CCOCC4)CC3)n2)cc1 was tested, and the “% Inhibition” value was -1% and the Z score was 0.07.
For COc1cc(C(=O)O)ccc1CCNC(=O)c1nc(C)sc1C, the “% Inhibition” value was -10% and the Z score was 1.29.
COCCN(CCOC)C1CN(C(=O)c2ccn(C)n2)C1 was tested, and the “% Inhibition” value was 4% and the Z score was -0.81.
For CC(=O)c1cn(Cc2ccco2)c(=O)n(C)c1=O, the “% Inhibition” value was 30% and the Z score was -3.89.
COc1ccc(-c2cc(C)no2)cc1S(=O)(=O)N1CCCN(Cc2ccc(F)cc2)C1 was tested, and the “% Inhibition” value was 7% and the Z score was -0.95.
In the case of CCOC(=O)N1CCC(NC(=O)c2cnn3c(-c4ccc(C(C)C)cc4)ccnc23)CC1, the “% Inhibition” value is reported as 32% and the Z score is reported as -3.58.
CC[C@H](NS(=O)(=O)N1CCCC1)c1ncccc1C was tested, and the “% Inhibition” value was -3% and the Z score was 0.48.
In the case of Cc1cc(Cl)cc2c(=O)n([C@H]3CC[C@H](N)C3)cnc12, the “% Inhibition” value is reported as 10% and the Z score is reported as -2.01.
With CC(C(=O)N1CC(=O)Nc2ccccc21)N1CCOC(c2ccc(Cl)cc2)C1 (centres undefined) the “% Inhibition” value was -5% and the Z score was 0.73.
In the case of O=C(Nc1ccc(Oc2ccccc2)cc1)c1ncn(C[C@H](O)c2ccc(F)cc2)n1, the “% Inhibition” value is reported as 2% and the Z score is reported as -0.18.
COc1ccccc1N(CC(F)(F)F)C(=O)C1OCCC1C (centres undefined) was tested, and the “% Inhibition” value was 3% and the Z score was -0.48.
In the case of Cc1cc(S(=O)(=O)NC[C@H]2CCOCO2)c(Cl)cc1F, the “% Inhibition” value is reported as -6% and the Z score is reported as 1.04.
COc1ccc(CN2C(=O)c3ccccc3C2=O)cc1C(=O)N1CCC(C(=O)N[C@@H](C)C(C)C)CC1 was tested, and the “% Inhibition” value was 2% and the Z score was -0.22.
With O=C(Nc1cccc(-c2nc3ccccc3s2)c1)C1=COCCO1 the “% Inhibition” value was -20% and the Z score was 2.65.
Cc1ccc(OCc2nc(C)c(C)o2)nc1 was tested, and the “% Inhibition” value was 6% and the Z score was -0.91.
With CCOC(=O)C1=C(c2ccccc2)S/C(=C2/C(=S)C(C)(C)Nc3cc(OCC)ccc32)S1 the “% Inhibition” value (2 µM) was -7% and the Z score (2 µM) was 4.44.
For CN(C)C(=O)CN1C(=O)[C@@H]2CC[C@H]1CN(C(=O)CCc1ccc(Cl)cc1)C2, the “% Inhibition” value was -6% and the Z score was 1.24.
C[C@@H](NCc1cncc(Br)c1)c1ccccc1 was tested, and the “% Inhibition” value was 3% and the Z score was -0.39.
CNc1ccc(C(F)(F)F)cc1C(=O)O was tested, and the “% Inhibition” value was 10% and the Z score was -1.5.
With Cn1c(=O)n(C)c2cc([C@@H](O)COc3ccc(CNC4CCCCCC4)cc3)ccc21 the “% Inhibition” value was -23% and the Z score was 2.05.
For CC1(F)CN(C(=O)NCc2ncc(Br)cn2)C1, the “% Inhibition” value was 2% and the Z score was -0.39.
For CN(Cc1ccccc1)[C@@H](c1cnn(C)c1)c1sc2ncnn2c1O, the “% Inhibition” value was 10% and the Z score was -1.5.
For C#C[C@@H](NC(=O)NCCc1ccnn1C)C(C)C, the “% Inhibition” value was -6% and the Z score was 0.62.
For CC1CCCN(c2oc(C3CC3c3ccccc3)nc2C#N)C1 (centres undefined), the “% Inhibition” value was -10% and the Z score was 1.38.
With CCc1nn(C)c2c(=O)n(CC(C)(C)N3CCOCC3)cnc12 the “% Inhibition” value was -5% and the Z score was 0.98.
With CC(=O)NC1(C(=O)N2CCN(C3CCCC3O)CC2)CCCCC1 (centres undefined) the “% Inhibition” value was 4% and the Z score was -0.57.
With COc1ccc(CNC(=O)[C@]2(C)Cn3cnc(C(=O)NC4CCCCCC4)c3C(=O)N2C2CC2)cc1 the “% Inhibition” value was -1% and the Z score was 0.06.
With N#CCCn1cc(CNc2ccc(F)cn2)c(-c2ccccc2)n1 the “% Inhibition” value was -7% and the Z score was 0.76.
In the case of CCC(C)(C)COC(=O)c1ccc(C#N)c(C)n1, the “% Inhibition” value is reported as -12% and the Z score is reported as 1.77.
With CNS(=O)(=O)CC(=O)N[C@H]1CCN(c2ccc(F)c(Cl)c2)C1 the “% Inhibition” value was 6% and the Z score was -1.15.
With COC(=O)[C@H]1CC[C@@H](NC(=O)Nc2cccc(C(C)(F)F)c2)C1 the “% Inhibition” value was -19% and the Z score was 2.26.
Cc1nonc1CN(C)C(=O)c1coc(Cn2cnc3ccccc32)n1 was tested, and the “% Inhibition” value was -10% and the Z score was 1.67.
Cc1nc(N)ncc1C(=O)N1CCOC(C)(C)C1 was tested, and the “% Inhibition” value was -15% and the Z score was 1.47.
In the case of OCC[C@H]1CN(Cc2cnc(N3CCCC3)s2)CCN1Cc1ccsc1, the “% Inhibition” value is reported as -5% and the Z score is reported as 0.68.
In the case of COc1cccc(NC(=O)Cn2c(=O)c3cc(C4CC4)nn3c3ncccc32)c1, the “% Inhibition” value is reported as 11% and the Z score is reported as -2.13.
For CC(C)N(C(=O)CCOC1CCOCC1)c1cnn(C)c1, the “% Inhibition” value was -17% and the Z score was 1.51.
For CC(C)c1cccc(OCc2nnn(C(C)(C)C)n2)c1, the “% Inhibition” value was -12% and the Z score was 1.67.
With CCOC1CC(NC(=O)COCc2nc(C)no2)C12CCCC2 (centres undefined) the “% Inhibition” value was -13% and the Z score was 1.65.
With CNc1nc(C)cc(C(=O)Nc2ccc(Cl)cc2NC(C)=O)n1 the “% Inhibition” value was 33% and the Z score was -0.34.
With CCOc1cc(C(=O)Nc2ncccc2O)ccc1OCCOc1ccccc1 the “% Inhibition” value was 18% and the Z score was -2.34.
For c1ccc(-c2ncn(CCN3CCCCC3)c2-c2cnn3cccnc23)cc1, the “% Inhibition” value was -12% and the Z score was 1.19.
With CC(C(=O)N1CC[C@H](C)C[C@@H]1C)c1ccccc1 (some centres undefined) the “% Inhibition” value was 2% and the Z score was -0.19.
With O=C(Cc1ccc(CO)cc1)N1C[C@H]2CC[C@@H](C1)N(CC1CCC1)C2=O the “% Inhibition” value was -4% and the Z score was 0.66.
With O=C(Cn1nc(-n2cccn2)ccc1=O)NCc1ccco1 the “% Inhibition” value was -7% and the Z score was 1.27.
Cc1cc(F)cc(C)c1C(=O)NCCS(N)(=O)=O was tested, and the “% Inhibition” value was -4% and the Z score was 0.48.
In the case of CS(=O)(=O)N1CCC(C(=O)NC2CCCCC2C(F)(F)F)CC1 (centres undefined), the “% Inhibition” value is reported as 4% and the Z score is reported as -0.4.
CCONC(=O)C(NC(=O)c1ccc(Cl)cc1)C(C)CC (centres undefined) was tested, and the “% Inhibition” value was 8% and the Z score was -1.54.
CCN(CC)C(=O)N1CCC(C(=O)N2c3ccccc3C[C@@H]2C)CC1 was tested, and the “% Inhibition” value was 4% and the Z score was -0.82.
CCn1nc(C)c(CN2CCCN(S(=O)(=O)N3CCOCC3)CC2)c1C was tested, and the “% Inhibition” value was -18% and the Z score was 2.83.
For CCc1nc(C)ccc1OCc1cccnc1, the “% Inhibition” value was 0% and the Z score was -0.07.
Cc1nonc1OCCNC(=O)C[C@H]1CCCOC1 was tested, and the “% Inhibition” value was 5% and the Z score was -0.63.
With CS(=O)(=O)N1CCC[C@H](CNC(=O)CN2Cc3ccccc3C2)C1 the “% Inhibition” value was -3% and the Z score was 0.67.
For CCCNC(=O)CNC(=O)c1coc(C)n1, the “% Inhibition” value was -1% and the Z score was 0.07.
For C=C(C)[C@H](NC(=O)N1CCS(=O)(=O)CC1)c1ccc(F)c(F)c1, the “% Inhibition” value was -8% and the Z score was 1.58.
With Cc1ccsc1CNC(=O)Cn1cc2c(n1)CCOC2 the “% Inhibition” value was -12% and the Z score was 1.56.
With COc1cccc(F)c1C(=O)N[C@@H]1[C@H]2CCO[C@H]2[C@H]1Cc1ccccc1 the “% Inhibition” value was -7% and the Z score was 0.86.
With COc1ccccc1CNC(=O)Cn1c(C)nc2onc(C)c2c1=O the “% Inhibition” value was -1% and the Z score was 0.11.
For O=C(NCc1ccnc(-c2ccco2)c1)c1cccc(Cl)c1, the “% Inhibition” value was -3% and the Z score was 0.5.
In the case of O=C(Oc1ccc(F)cc1)c1cc(-c2ccccc2)on1, the “% Inhibition” value is reported as 7% and the Z score is reported as -0.76.
CNC(=O)c1nc(CN2C(=O)CCCC2=O)no1 was tested, and the “% Inhibition” value was -17% and the Z score was 2.33.
C=CC[C@@H](CO)Nc1ccc(F)cc1C#N was tested, and the “% Inhibition” value was -6% and the Z score was 0.74.
In the case of O=C(NCC1CCCCCC1)N[C@H]1COC[C@@H]1O, the “% Inhibition” value is reported as -6% and the Z score is reported as 1.12.
For Cc1ncsc1C(=O)NCc1nnc2cc(C(F)(F)F)ccn12, the “% Inhibition” value was -7% and the Z score was 1.11.
CC(C)N1C(=O)CN(S(=O)(=O)CCCF)CC1(C)C was tested, and the “% Inhibition” value was -16% and the Z score was 1.33.
For O=C(c1scnc1C1CC1)N1CCCCC2CCCCC21 (centres undefined), the “% Inhibition” value was -7% and the Z score was 0.95.
With CCCCOC1CC(N(C)C(=O)Cc2csc(CC)n2)C1(C)C (centres undefined) the “% Inhibition” value was -1% and the Z score was 0.09.
In the case of O=C(NCCn1nc(-n2cccn2)ccc1=O)C1CCC1, the “% Inhibition” value is reported as -5% and the Z score is reported as 0.95.
